In patent US20240336682A1 (SHENGHE CHINA BIOPHARMACEUTICAL, published 2024):

Key:
[1] = molecular target: T1, TGFβ1 (UniProt P01137 partial chain, limits assumed); test: ELISA, TGFb1 coated at 1 ug/mL, HRP goat anti-human IgG-Fc
T1 construct: also called TGFβ1 protein
Method: TGFβ1 was diluted to 1 μg/mL with PBS buffer at pH 7.4, added into the 96-well ELISA plate at 100 μL per well, coated overnight at 4° C., and blocked with 1% BSA blocking solution for 1 hour. The plate was washed 3 times with PBST, and the constructed expressing antibodies were diluted to 20 µg/mL with 0.5% BSA sample diluent as the starting concentration, and then diluted by 3-fold gradient (11 gradients in total). A negative control (blank well and IgG1 isotype control) and a positive control were set, and the positive control was TGF-βR2 (Acro, Cat: TG2-H5252), and incubated at 37° C. for 1 h at 100 μL per well. The plate was washed 3 times with PBST, and then HRP-labelled goat anti-human IgG-Fc was diluted with the sample diluent at 1:10000. 100 μL was added into each well, and incubated at room temperature for 1 hour. The plate was washed 4 times with PBST, and 100 μL of TMB substrate was added into each well, and incubated at room temperature without light for 10 minutes. 100 μL of 1 M HCl solution was added into each well to terminate the color development reaction. The absorbance value of each well in the 96-well plate was determined by selecting the wavelength of 450 nm and the reference wavelength of 570 nm on a multifunctional enzyme marker, and the absorbance value (OD)=OD₄₅₀ₙₘ−OD₅₇₀ₙₘ. The logarithm of the concentration of the constructed antibodies were taken as the abscissa, and the measured absorbance value of each well was taken as the ordinate, and the Sigmoidaldose-response (Variable Slope) method (GraphPad Prism software, GraphPad Software, San Diego, California) was selected for nonlinear regression to obtain the binding curve of the target antibodies to the TGFβ1 protein.

[2] = molecular target: T2, Human-CD24-His (human, UniProt P25063 27-59); test: ELISA, Human-CD24-His coated at 1 ug/mL, HRP goat anti-human IgG-Fc
T2 construct: also called CD24 protein; not shown: His tag
T2 chain (looked up): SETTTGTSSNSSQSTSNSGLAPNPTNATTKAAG
Method: Human-CD24-His was diluted to 1 μg/mL with PBS buffer at pH 7.4, added into the 96-well ELISA plate at 100 μL per well, coated overnight at 4° C., and blocked with 1% BSA blocking solution for 1 hour. The plate was washed 3 times with PBST, and the constructed antibodies were diluted to 20 μg/mL with 0.5% BSA sample diluent as the starting concentration, and then diluted by 3-fold gradient (11 gradients in total) and incubated at 37° C. for 1 h at 100 μL per well. The plate was washed 3 times with PBST, and then HRP-labelled goat anti-human IgG-Fc (jackson Cat: 109-035-098) was diluted with the sample diluent at 1:10000. 100 μL was added into each well, and incubated at room temperature for 1 hour. A negative control (blank well and IgG1 isotype control) and a positive control were set, and the positive control was a CD24 monoclonal antibody (CD24 sequence consists of SEQ ID No. 12 and SEQ ID No. 34). The plate was washed 4 times with PBST, and 100 μL of TMB substrate was added into each well, and incubated at room temperature without light for 10 minutes. 100 μL of 1 M HCl solution was added into each well to terminate the color development reaction. The absorbance value of each well in the 96-well plate was determined by selecting the wavelength of 450 nm and the reference wavelength of 570 nm on a multifunctional enzyme marker, and the absorbance value (OD)=OD₄₅₀ₙₘ−OD₅₇₀ₙₘ. The logarithm of the concentration of the constructed antibodies were taken as the abscissa, and the measured absorbance value of each well was taken as the ordinate, and the Sigmoidaldose-response (Variable Slope) method (GraphPad Prism software, GraphPad Software, San Diego, California) was selected for nonlinear regression to obtain the binding curve of the target antibodies to the CD24 protein.

[3] = molecular target: T3, Human-NKP30-His (human, UniProt O14931 19-135); test: ELISA, Human-NKP30-His coated at 0.5 ug/mL, HRP goat anti-human IgG-Fc
T3 construct: also called NKP30 protein; not shown: His tag
T3 sequence (looked up): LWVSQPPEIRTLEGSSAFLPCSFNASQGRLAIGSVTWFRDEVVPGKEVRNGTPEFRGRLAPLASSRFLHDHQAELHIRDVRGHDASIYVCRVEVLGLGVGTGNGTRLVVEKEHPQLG
Method: Human-NKP30-His was diluted to 0.5 μg/mL with PBS buffer at pH 7.4, added into the 96-well ELISA plate at 100 μL per well, coated overnight at 4° C., and blocked with 1% BSA blocking solution for 1 hour. The plate was washed 3 times with PBST, and the constructed antibodies were diluted to 10 μg/mL with 0.5% BSA sample diluent as the starting concentration, and then diluted by 3-fold gradient (11 gradients in total). A negative control (blank well and IgG1 isotype control) and a positive control were set, and the positive control was a NKP30 humanized antibody (sequence shown in SEQ ID No.32), and incubated at 37° C. for 1 h at 100 μL per well. The plate was washed 3 times with PBST, and then HRP-labelled goat anti-human IgG-Fc was diluted with the sample diluent at 1:20000. 100 μL was added into each well, and incubated at room temperature for 1 hour. The plate was washed 4 times with PBST, and 100 μL of TMB substrate was added into each well, and incubated at room temperature without light for 10 minutes. 100 μL of 1 M HCl solution was added into each well to terminate the color development reaction. The absorbance value of each well in the 96-well plate was determined by selecting the wavelength of 450 nm and the reference wavelength of 570 nm on a multifunctional enzyme marker, and the absorbance value (OD)=OD₄₅₀ₙₘ−OD₅₇₀ₙₘ. The logarithm of the concentration of the constructed antibodies were taken as the abscissa, and the measured absorbance value of each well was taken as the ordinate, and the Sigmoidaldose-response (Variable Slope) method (GraphPad Prism software, GraphPad Software, San Diego, California) was selected for nonlinear regression to obtain the binding curve of the target antibody to NKP30 protein.

Sequence of TGFβ1 (P01137 279-390 limits assumed): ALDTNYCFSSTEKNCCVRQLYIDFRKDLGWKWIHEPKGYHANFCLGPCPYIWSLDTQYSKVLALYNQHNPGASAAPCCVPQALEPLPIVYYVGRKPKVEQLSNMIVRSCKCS

B2: DNT-A (other)
light: EVQLVESGGGLVQPGGSLRLSCAASGITFSRSVMGWFRQAPGKLRELVAGITSDDNTDYADSVKGRFTISRDNSKNTLYLQMNSLRAEDTAVYYCNILPDSRLGWGQGTLVTVSSGGGGSGGGGSGGGGSDIQMTQSPSTLSASVGDRVTITCSASSSVSSMHWYQQKPGKAPKLLIYSTSNLASGVPSRFSGSGSGTEYTLTISSLQPDDFATYYCHHWTSYMYTFGGGTKVEIKRTVAAPSVFIFPPSDEQLKSGTASVVCLLNNFYPREAKVQWKVDNALQSGNSQESVTEQDSKDSTYSLSSTLTLSKADYEKHKVYACEVTHQGLSSPVTKSFNRGEC
heavy: QVQLVQSGSELKKPGASVKVSCKASGYIFTDYAIHWVRQAPGQGLEWMGFINTATGEPTYADDFKGRFVFSLDTSVSTAYLQISSLKAEDTAVYFCTSGVHWGQGTLVTVSS[human IgG1 constant region not spelt out]GGSGGGGSGGGGSGGGGSGIPPHVQKSVNNDMIVTDNNGAVKFPQLCKFCDVRFSTCDNQKSCMSNCSITSICEKPQEVCVAVWRKNDENITLETVCHDPKLPYHDFILEDAASPKCIMKEKKKPGETFFMCSCSSDECNDNIIFSEEYNTSNPD
notes: also called constructed antibody DNT-A; trifunctional antibody
EC50 (read off the curve) [2]: ~0.2 µg/mL

B3: DNT-C (other)
light: DIQMTQSPSTLSASVGDRVTITCSASSSVSSMHWYQQKPGKAPKLLIYSTSNLASGVPSRFSGSGSGTEYTLTISSLQPDDFATYYCHHWTSYMYTFGGGTKVEIKRTVAAPSVFIFPPSDEQLKSGTASVVCLLNNFYPREAKVQWKVDNALQSGNSQESVTEQDSKDSTYSLSSTLTLSKADYEKHKVYACEVTHQGLSSPVTKSFNRGECGGGGSGGGGSGGGGSGGGGSEVQLVESGGGLVQPGGSLRLSCAASGITFSRSVMGWFRQAPGKLRELVAGITSDDNTDYADSVKGRFTISRDNSKNTLYLQMNSLRAEDTAVYYCNILPDSRLGWGQGTLVTVSS
heavy: B2 heavy
notes: also called constructed antibody DNT-C; trifunctional antibody
EC50 (read off the curve) [2]: ~0.03 µg/mL

B5: CNT-B (other)
light: DIVMTQSPSSLTATARERVTMSCKSSQSLLNSGNQKNYLTWYQQKPGQPPKLLIYWASTRESGVPDRFTGSGSGTDFTLTVSSVQAEDLAVYYCQNAYFYPFTFGSGTKLEIKRTVAAPSVFIFPPSDEQLKSGTASVVCLLNNFYPREAKVQWKVDNALQSGNSQESVTEQDSKDSTYSLSSTLTLSKADYEKHKVYACEVTHQGLSSPVTKSFNRGEC
heavy: EVQLVESGGGLVQPGGSLRLSCAASGITFSRSVMGWFRQAPGKLRELVAGITSDDNTDYADSVKGRFTISRDNSKNTLYLQMNSLRAEDTAVYYCNILPDSRLGWGQGTLVTVSSGGGGSGGGGSGGGGSEVQLVESGGGLVKPGGSLKLSCTASGFTFSSYVMSWVRQTPEKRLEWVATINDGGSYTYYPDNLKGRFTISRDNAKNNLYLQMSHLRSEDTARYYCSVLRRGNAMDYWGQGTSVTVSS[human IgG1 constant region not spelt out]GGSGGGGSGGGGSGGGGSGIPPHVQKSVNNDMIVTDNNGAVKFPQLCKFCDVRFSTCDNQKSCMSNCSITSICEKPQEVCVAVWRKNDENITLETVCHDPKLPYHDFILEDAASPKCIMKEKKKPGETFFMCSCSSDECNDNIIFSEEYNTSNPD
notes: also called constructed antibody CNT-B; trifunctional antibody
EC50 (read off the curve) [1]: ~0.3 µg/mL
EC50 (read off the curve) [3]: ~0.1 µg/mL

More lines, now with the values ahead:

EC50 (read off the curve) [1]: ~0.02 µg/mL
EC50 (read off the curve) [2]: ~0.2 µg/mL
B1: DNT-B (other)
light: DIQMTQSPSTLSASVGDRVTITCSASSSVSSMHWYQQKPGKAPKLLIYSTSNLASGVPSRFSGSGSGTEYTLTISSLQPDDFATYYCHHWTSYMYTFGGGTKVEIKRTVAAPSVFIFPPSDEQLKSGTASVVCLLNNFYPREAKVQWKVDNALQSGNSQESVTEQDSKDSTYSLSSTLTLSKADYEKHKVYACEVTHQGLSSPVTKSFNRGEC
heavy: EVQLVESGGGLVQPGGSLRLSCAASGITFSRSVMGWFRQAPGKLRELVAGITSDDNTDYADSVKGRFTISRDNSKNTLYLQMNSLRAEDTAVYYCNILPDSRLGWGQGTLVTVSSGGGGSGGGGSGGGGSQVQLVQSGSELKKPGASVKVSCKASGYIFTDYAIHWVRQAPGQGLEWMGFINTATGEPTYADDFKGRFVFSLDTSVSTAYLQISSLKAEDTAVYFCTSGVHWGQGTLVTVSS[human IgG1 constant region not spelt out]GGSGGGGSGGGGSGGGGSGIPPHVQKSVNNDMIVTDNNGAVKFPQLCKFCDVRFSTCDNQKSCMSNCSITSICEKPQEVCVAVWRKNDENITLETVCHDPKLPYHDFILEDAASPKCIMKEKKKPGETFFMCSCSSDECNDNIIFSEEYNTSNPD
notes: also called constructed antibody DNT-B; trifunctional antibody

EC50 (read off the curve) [1]: ~0.03 µg/mL
EC50 (read off the curve) [3]: ~0.02 µg/mL
B4: CNT-A (other)
light: EVQLVESGGGLVQPGGSLRLSCAASGITFSRSVMGWFRQAPGKLRELVAGITSDDNTDYADSVKGRFTISRDNSKNTLYLQMNSLRAEDTAVYYCNILPDSRLGWGQGTLVTVSSGGGGSGGGGSGGGGSDIVMTQSPSSLTATARERVTMSCKSSQSLLNSGNQKNYLTWYQQKPGQPPKLLIYWASTRESGVPDRFTGSGSGTDFTLTVSSVQAEDLAVYYCQNAYFYPFTFGSGTKLEIKRTVAAPSVFIFPPSDEQLKSGTASVVCLLNNFYPREAKVQWKVDNALQSGNSQESVTEQDSKDSTYSLSSTLTLSKADYEKHKVYACEVTHQGLSSPVTKSFNRGEC
heavy: EVQLVESGGGLVKPGGSLKLSCTASGFTFSSYVMSWVRQTPEKRLEWVATINDGGSYTYYPDNLKGRFTISRDNAKNNLYLQMSHLRSEDTARYYCSVLRRGNAMDYWGQGTSVTVSS[human IgG1 constant region not spelt out]GGSGGGGSGGGGSGGGGSGIPPHVQKSVNNDMIVTDNNGAVKFPQLCKFCDVRFSTCDNQKSCMSNCSITSICEKPQEVCVAVWRKNDENITLETVCHDPKLPYHDFILEDAASPKCIMKEKKKPGETFFMCSCSSDECNDNIIFSEEYNTSNPD
notes: also called constructed antibody CNT-A; trifunctional antibody

One block for each binder: values may come before it.
